# Measurements taken from article PMC4336329 (PLoS ONE, 2015).
# In all, about 310,000 compounds went through this assay and about 2,200 (0.71%) showed an effect of 50% or more. Effects have a minus sign here. The list shows a part of the results.
# Target: human ether-à-go-go-related gene (hERG) potassium channel (human, UniProt Q12809)
# Experiment: primary screen, population patch clamp on CHO cells stably expressing hERG
# Chain of human ether-à-go-go-related gene (hERG) potassium channel (Q12809 whole entry, looked up): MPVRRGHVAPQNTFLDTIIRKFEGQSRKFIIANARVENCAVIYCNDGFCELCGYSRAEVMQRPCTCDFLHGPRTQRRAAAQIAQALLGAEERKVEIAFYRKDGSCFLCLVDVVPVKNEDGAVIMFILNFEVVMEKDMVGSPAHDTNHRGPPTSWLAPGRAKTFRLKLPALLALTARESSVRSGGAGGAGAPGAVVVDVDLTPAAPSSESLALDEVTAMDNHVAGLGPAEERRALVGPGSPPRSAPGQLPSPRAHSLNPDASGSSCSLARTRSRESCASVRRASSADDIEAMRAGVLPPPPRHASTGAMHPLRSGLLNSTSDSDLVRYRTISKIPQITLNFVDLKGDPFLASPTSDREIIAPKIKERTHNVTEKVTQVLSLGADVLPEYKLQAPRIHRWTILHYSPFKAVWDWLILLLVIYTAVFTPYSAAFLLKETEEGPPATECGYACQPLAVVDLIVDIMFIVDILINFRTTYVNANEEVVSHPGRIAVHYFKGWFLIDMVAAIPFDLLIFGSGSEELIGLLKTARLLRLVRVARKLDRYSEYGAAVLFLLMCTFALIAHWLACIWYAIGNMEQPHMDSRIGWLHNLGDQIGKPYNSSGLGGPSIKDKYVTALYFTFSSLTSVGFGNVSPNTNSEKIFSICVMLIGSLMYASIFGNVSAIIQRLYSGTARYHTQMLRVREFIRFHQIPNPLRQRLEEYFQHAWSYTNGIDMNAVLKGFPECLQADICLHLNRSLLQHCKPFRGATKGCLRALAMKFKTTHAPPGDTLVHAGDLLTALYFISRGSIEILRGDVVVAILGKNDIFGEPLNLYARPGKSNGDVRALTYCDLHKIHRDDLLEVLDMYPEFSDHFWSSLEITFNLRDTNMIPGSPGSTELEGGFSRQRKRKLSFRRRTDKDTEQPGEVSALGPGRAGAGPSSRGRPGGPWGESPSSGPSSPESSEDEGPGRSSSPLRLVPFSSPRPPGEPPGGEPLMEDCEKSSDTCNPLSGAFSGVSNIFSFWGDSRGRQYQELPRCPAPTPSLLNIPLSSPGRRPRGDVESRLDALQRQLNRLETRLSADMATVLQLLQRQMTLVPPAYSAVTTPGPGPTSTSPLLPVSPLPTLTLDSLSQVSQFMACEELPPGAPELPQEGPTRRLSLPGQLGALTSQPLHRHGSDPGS
row,SMILES,"hERG current change (%, negative = inhibition) at 1uM"
1,O=C(Nc1ccc(F)cc1Cl)c1ccc2c(=O)n3c(nc2c1)CCCCC3,8.18%
2,CCCCN1C(=O)C(C)=C(C)C1OCCc1ccc(OC)c(OC)c1 (stereo not shown),17.1%
3,COc1ccc2cc(/C=C3\SC(=S)NC3=O)c(N3CCOCC3)nc2c1,14.2%
4,Cc1ccc(C)c(S(=O)(=O)NCc2ccc(C(=O)N3CCC(Cc4ccccc4)CC3)cc2)c1,8.87%
5,COc1ccc(C(CNC(=O)CNC(=O)c2cccc(C)c2)N2CCOCC2)cc1 (stereo not shown),18.5%
6,O=C(COC(=O)[C@H](Cc1ccccc1)NC(=O)c1ccco1)NC(c1ccccc1)c1ccccc1,4.1%
7,COc1ccc(/C=c2/sc3nc(-c4ccccc4)c(-c4ccccc4)n3c2=O)cc1,-5.88%
8,O=C(N/N=C/c1ccco1)c1cc(-c2cccs2)[nH]n1,17.8%
9,COc1cc2c(cc1OC)[C@H](C)N(C(=O)NCc1ccccc1)CC2,8.29%
10,CCN1C(=O)CCC(C(=O)O)C1c1ccc(OC)cc1 (stereo not shown),12.5%
11,Cn1nc(C(F)(F)F)c2cc(C(=O)Nc3ccc(F)cc3F)sc21,10.6%
12,Cc1ccccc1C(=O)NN(C)c1nc2ccccc2nc1C(F)(F)F,18.9%
13,CN(/N=C/c1ccc(C(C)(C)C)cc1)C1=NCCN1,-24.5%
14,CCOc1ccc(NC(=O)CC2C(=O)N(c3ccc(OC)c(Cl)c3)C(=S)N2C2CC2)cc1 (stereo not shown),6.94%
15,Clc1cccc(Cl)c1-c1nnc2ccc(N3CCOCC3)nn12,11.4%
16,O=C(O)c1cc(-c2cccs2)nn1-c1cccc(Cl)c1,5.58%
17,COCCCn1c(CCC(=O)O)ccc1-c1cccs1,-4.8%
18,O=C(COc1ccccc1)NC(Cc1c[nH]c2ccccc12)C(=O)O (stereo not shown),15.3%
19,COc1ccc(C(=O)Nc2nc(CC(=O)NCCc3cccc(OC)c3)cs2)cc1,-4.45%
20,O=C(NCC(c1cccs1)N1CCOCC1)c1cc([N+](=O)[O-])cc([N+](=O)[O-])c1 (stereo not shown),13.9%
21,CCOC(=O)c1[nH]c(C)c(/C(O)=C2\C(=O)C(=O)N(CCN(C)C)C2c2ccc(C)o2)c1C (stereo not shown),12%
22,CN1CCN(c2ccccc2NC(=O)c2ccc(-c3ccccc3)cc2)CC1,1.52%

row,SMILES,"hERG current change (%, negative = inhibition) at 1uM"
1,CCOC(=O)c1cc[nH]c1C,15%
2,NNC(=O)CN(CCc1ccccc1)S(=O)(=O)c1ccc(Cl)cc1,0.141%
3,Cc1ccc(-c2nc(=S)c3c(n2Cc2ccco2)CC(C)(C)OC3)cc1,2.16%
4,O=c1c2nnn(-c3ccc(Br)cc3)c2ncn1Cc1ccccn1,-16.1%
5,Cc1nc2oc3ccc(F)cc3c(=O)c2cc1C(=O)O,6.62%
6,COc1ccc(S(=O)(=O)NC2CCSc3ccccc32)cc1NC(C)=O (stereo not shown),5.06%
7,CN1CCN(C2=Cc3ccccc3Sc3cc(F)ccc32)CC1.O=C(O)/C=C\C(=O)O,3.9%
8,CC(C)(C)OC(=O)CNC(=O)c1[nH]cnc1C(=O)Nc1ccc(Cl)cc1,18%
9,COC(=O)c1ccnc(/C=N/O)c1,16.4%
10,O=C(CCCN1C(=O)C(c2ccccc2)Oc2cccnc21)NCc1ccccc1Cl (stereo not shown),22.9%
11,CCCCC(O)(CCCC)C(=O)NN(C(=O)c1cccnc1Cl)c1ccccc1,4.71%
12,CCc1cc(=O)oc2cc(C)cc(OC(C)C(=O)NCCCn3ccnc3)c12 (stereo not shown),2.72%
13,CC12CC[C@H]3[C@@H](CCC4(O)C[C@H](O)CCC34/C=N/NC(=O)c3ccccc3O)C1(O)CCC2C1=CC(=O)OC1 (stereo partly shown),12.7%
14,CC(C)(C)C(=O)COC(=O)c1ccc(O)cc1,9.06%
15,Cc1cccc(CS(=O)(=O)c2ncc(Cl)c(C(=O)Nc3ccc(F)cc3)n2)c1,17.6%
16,C[C@H](NC(=O)c1nc[nH]c1C(=O)N[C@@H](CCCCNC(=O)OC(C)(C)C)C(=O)OC(C)(C)C)C(=O)OCc1ccccc1,5.31%
17,COc1ccc([C@H]2CC(=O)C=C(c3ccc(-c4ccccc4)cc3)C2)cc1OC,18.8%
18,Nn1cnc2scc(-c3cccs3)c2c1=O,9.38%
19,COc1ccc(CCNCc2ccc(OCc3ccccc3)cc2)cc1,3.16%
20,Cc1noc(C)c1C(=O)Nc1ccccc1-c1ccccc1,17.8%
21,O=C(COC(=O)CCCc1nc2ccccc2s1)Nc1ncc(Cl)cc1Cl,7.98%
22,CC(C)(C)c1nc(C(C)(C)C)c(Br)c(=O)[nH]1,1.89%

row,SMILES,"hERG current change (%, negative = inhibition) at 1uM"
1,COC(=O)C1=C(c2ccc(-c3ccccc3)c(F)c2)C[C@@H]2CC[C@H]1N2C(=O)NC1Cc2ccccc2C1,12.8%
2,Cc1ccc2cccc(OC(=O)c3ccc4c(c3)OCCO4)c2n1,-3.96%
3,COCC(C)n1c(-c2ccc3c(c2)NC(=O)CO3)csc1=Nc1ccc(OC(F)F)cc1 (stereo not shown),6.97%
4,O=C(CSc1nc(=O)n2ccccc2n1)N1CCC(Cc2ccccc2)CC1,-27.4%
5,Cn1c(N)c(C(=O)CN2CCc3ccccc3C2)c(=O)n(C)c1=O,1.65%
6,COc1ccc(-c2nnc(Nc3ccc(CC(N)=O)cc3)c3ccccc23)cc1,-3.65%
7,CNc1nc(-c2c[nH]c3ccccc23)cs1,-6.63%
8,CC(C)CCNC(=O)c1ccc(Cl)c(NC(=O)Cc2ccccc2)c1,-1.18%
9,Cc1cc2nc(-c3ccc(SCc4ccccc4C#N)nc3)[nH]c2cc1C,4.69%
10,Cc1cc(C)n(-c2cccc(F)n2)n1,16.4%
11,C[C@H]1[C@@H](OC(=O)CCC(=O)O)O[C@@H]2O[C@@]3(C)CC[C@H]4[C@H](C)CC[C@@H]1[C@@]24OO3,4.17%
12,CC(C)(C)c1ccc(OCC(O)CS(=O)(=O)c2ccccn2)cc1 (stereo not shown),5.03%
13,CCNc1c(NS(=O)(=O)c2ccc(C3CCCCC3)cc2)c(=O)oc2ccccc12,16.3%
14,CCCCNC(=S)N(C)/N=C/c1c(F)c(F)c(F)c(F)c1F,0.622%
15,O=C(Nc1ccccn1)c1cc2cc([N+](=O)[O-])ccc2s1,18.7%
16,CSC1=NC(=O)/C(=C\c2cccc3ccccc23)S1,10.9%
17,CCC(=O)Oc1ccc(C2NC(=O)c3ccccc3O2)cc1OC (stereo not shown),13.6%
18,COc1ccc2[nH]c(=O)c(CN(CCc3ccccc3)C(C)=O)cc2c1,7.58%
19,COc1cc(Cl)c(S(=O)(=O)N2CCN(Cc3ccc4c(c3)OCO4)CC2)cc1Cl,6.85%
20,CCOC(=O)C1CCN(Cc2cc(=O)oc3cc(C)c(Cl)cc23)CC1,17.6%
21,CCOc1ccc(OCC)c(NC(=O)C2CCN(S(=O)(=O)c3cccc4nonc34)CC2)c1,13.3%
22,CC(C)n1c(N2CCCC2)nc2c1c(=O)[nH]c(=O)n2C,17.2%

row,SMILES,"hERG current change (%, negative = inhibition) at 1uM"
1,CNC(=O)C1CC(=O)N(c2ccc(OCC(=O)N3CCCC3)cc2)C1 (stereo not shown),16.2%
2,Cc1ccc(Cn2c(C)c3cnn(CC(=O)N4CCC5(CC4)OCCO5)c(=O)c3c2C)cc1,8.7%
3,O=C(O)CC(C(=O)O)n1nc(-c2ccccc2)cc1-c1ccccc1 (stereo not shown),10.5%
4,CN(CCN1CCOCC1)Cc1nc(-c2ccc3c(c2)OCO3)no1,9.92%
5,COC(=O)c1cccc(N(C(=O)c2cnccn2)C(C(=O)NC2CCCCC2)c2cn(C)nc2C)c1 (stereo not shown),-1.2%
6,COc1ccc(C)cc1Nc1n[n+](-c2ccccc2)c(-c2cccc(Cl)c2Cl)s1.[Cl-],10.2%
7,Cc1cccc2cc(CN(Cc3cccnc3)C(=S)NCCCN(C)C)c(=O)[nH]c12,13.9%
8,O=CN/C=C/c1cc(O)ccc1O,-11.2%
9,NCCc1c(C(=O)O)[nH]c2ccc([N+](=O)[O-])cc12,12.9%
10,COCCNC(=O)C(c1ccccc1)N(C(=O)Cn1nnc2ccccc21)c1cccnc1 (stereo not shown),17.3%
11,O=C(Cn1c(C(=O)NCC2CCCO2)cc2sccc21)c1ccccc1 (stereo not shown),-4.85%
12,CCCCCCSc1cccc(-c2nc3ccc(C)cn3c2NC2CCCCC2)c1.O=C(O)C(F)(F)F,11.3%
13,c1cncc(-c2nc(NCCCN3CCOCC3)c3c4c(sc3n2)CCC4)c1,5.89%
14,COc1ccc(-c2cc(C(=O)Nc3ccc(O)cc3)c3ccccc3n2)cc1OC,3.78%
15,COc1ccc(NC(=O)c2c3c(nc4ccccc24)CCC3)cc1S(=O)(=O)N1CCOCC1,4.33%
16,O=c1c2c3c(sc2n(CCN2CCCC2)c(=O)n1Cc1ccccc1)CCCCC3,9.28%
17,O=C(NNS(=O)(=O)c1ccccc1)c1cc2cc3ccccc3nc2s1,14.6%
18,Cc1cc(N2CCOCC2)nc(C(C)C)n1,9.4%
19,[N-]=[N+]=NC1c2ccccc2C(=O)N1Cc1ccccc1 (stereo not shown),17.3%
